These results are taken from patent US7592316B2, “Peptides as NS3-serine protease inhibitors of hepatitis C virus” (Schering Corporation, priority 2000, dated 2009).

The target of the first test is HCV NS3/NS4A protease (strain 1a) (Hepatitis C virus genotype 1a, UniProt P27958). Nature of the test: biochemical. The settings on record: Table 4; HCV NS3/NS4A protease, spectrophotometric assay, 30° C., pH 6.5; read-out: Ki* Range. As for the experimental part:
Assay for HCV Protease Inhibitory Activity:
Spectrophotometric Assay Spectrophotometric assay for the HCV serine protease was performed on the inventive compounds by following the procedure described by R. Zhang et al, Analytical Biochemistry, 270 (1999) 268-275, the disclosure of which is incorporated herein by reference. The assay based on the proteolysis of chromogenic ester substrates is suitable for the continuous monitoring of HCV NS3 protease activity. The substrates were derived from the P side of the NS5A-NS5B junction sequence (Ac-DTEDWX(Nva), where X=A or chromophoric alcohols (3- or 4-nitrophenol, 7-hydroxy-4-methyl-coumarin, or 4-phenylazophenol). Presented below are the synthesis, characterization and application of these novel spectrophotometric ester substrates to high throughput screening and detailed kinetic evaluation of HCV NS3 protease inhibitors.
Protein concentrations were determined by the Biorad dye method using recombinant HCV protease standards previously quantified by amino acid analysis. Prior to assay initiation, the enzyme storage buffer (50 mM sodium phosphate pH 8.0, 300 mM NaCl, 10% glycerol, 0.05% lauryl maltoside and 10 mM DTT) was exchanged for the assay buffer (25 mM MOPS pH 6.5, 300 mM NaCl, 10% glycerol, 0.05% lauryl maltoside, 5 μM EDTA and 5 μM DTT) utilizing a Biorad Bio-Spin P-6 prepacked column.
Protease Assay: HCV protease assays were performed at 30° C. using a 200 μl reaction mix in a 96-well microtiter plate. Assay buffer conditions (25 mM MOPS pH 6.5, 300 mM NaCl, 10% glycerol, 0.05% lauryl maltoside, 5 μM EDTA and 5 μM DTT) were optimized for the NS3/NS4A heterodimer (D. L. SalI et al, ibid.)). […] Fifty μls of prewarmed protease (12 nM, 30° C.) in assay buffer, was then used to initiate the reaction (final volume 200 μl). The plates were monitored over the length of the assay (60 minutes) for change in absorbance at the appropriate wavelength (340 nm for 3-Np and HMC, 370 nm for PAP, and 400 nm for 4-Np) using a Spectromax Plus microtiter plate reader equipped with a monochrometer (acceptable results can be obtained with plate readers that utilize cutoff filters). Proteolytic cleavage of the ester linkage between the Nva and the chromophore was monitored at the appropriate wavelength against a no enzyme blank as a control for non-enzymatic hydrolysis. The evaluation of substrate kinetic parameters was performed over a 30-fold substrate concentration range (˜6-200 μM). Initial velocities were determined using linear regression and kinetic constants were obtained by fitting the data to the Michaelis-Menten equation using non-linear regression analysis (Mac Curve Fit 1.1, K. Raner). Turnover numbers (kcat) were calculated assuming the enzyme was fully active.
The resulting data were fitted using linear regression and the resulting slope, 1/(Ki*(1+[S] o/Km), was used to calculate the Ki* value.
For `CCCC(NC(=O)C1C[C@@H](CNC(=O)c2cccc(Oc3ccccc3)c2)CN1C(=O)[C@@H](NC(=O)c1ccccc1C(=O)O)C1CCCCC1)C(=O)C(=O)NCC(=O)N[C@H](C(N)=O)c1ccccc1` (some centres unmarked), the Ki was 1 to 100 nM.

Regarding `CCCC(NC(=O)[C@@H]1C[C@@H](NC(=O)OCC(C)C)CN1C(=O)[C@@H](NC(=O)c1c(F)ccc(F)c1C(=O)O)C1CCCCC1)C(=O)C(=O)NCC(=O)N[C@H](C(N)=O)c1ccccc1` (some centres unmarked), the Ki is 1 to 100 nM.

Take `CCCC(NC(=O)[C@@H]1C[C@@H](NS(=O)(=O)c2ccccc2)CN1C(=O)[C@@H](NC(=O)c1c(F)ccc(F)c1C(=O)O)C1CCCCC1)C(=O)C(=O)NCC(=O)N[C@H](C(N)=O)c1ccccc1` (some centres unmarked): the Ki fell in the range of 1 to 100 nM.

Take `CCCC(NC(=O)[C@@H]1C[C@@H](NC(=O)OCC(C)C)CN1C(=O)[C@@H](NC(=O)c1cc(Cl)c(Cl)cc1C(=O)O)C1CCCCC1)C(=O)C(=O)NCC(=O)N[C@H](C(N)=O)c1ccccc1` (some centres unmarked): the Ki lay within 1 to 100 nM.

Regarding `CCCC(NC(=O)[C@@H]1C[C@@H](NS(=O)(=O)c2ccccc2)CN1C(=O)[C@@H](NC(=O)c1cc(Cl)c(Cl)cc1C(=O)O)C1CCCCC1)C(=O)C(=O)NCC(=O)N[C@H](C(N)=O)c1ccccc1` (some centres unmarked), the Ki is 1 to 100 nM.

Consider `CCCC(NC(=O)[C@@H]1C[C@@H](NC(=O)Nc2ccccc2)CN1C(=O)[C@@H](NC(=O)c1cc(Cl)c(Cl)cc1C(=O)O)C1CCCCC1)C(=O)C(=O)NCC(=O)N[C@H](C(N)=O)c1ccccc1` (some centres unmarked), for which the Ki is 1 to 100 nM.

As for `CCCC(NC(=O)C1C2CCC(CC2)N1C(=O)[C@@H](NC(=O)OCC(C)C)C1CCCCC1)C(=O)C(=O)NCC(=O)N[C@H](C(N)=O)c1ccccc1` (some centres unmarked), the Ki lay within 101 to 1000 nM.

As to `CCCC(NC(=O)C1CC(C)(Cc2ccccc2)CN1C(=O)[C@@H](NC(=O)OCC(C)C)C1CCCCC1)C(=O)C(=O)NCC(=O)N[C@H](C(N)=O)c1ccccc1` (some centres unmarked), the Ki lay within 101 to 1000 nM.

In the case of `CCCC(NC(=O)C1CC(C)(C)CN1C(=O)[C@@H](NC(=O)OCC(C)C)C1CCCCC1)C(=O)C(=O)NCC(=O)N[C@H](C(N)=O)c1ccccc1` (some centres unmarked), the Ki was in the range of 1 to 100 nM.

On to `CCCC(NC(=O)[C@@H]1CC2(CCCC2)CN1C(=O)[C@@H](NC(=O)OCC(C)C)C1CCCCC1)C(=O)C(=O)NCC(=O)NC(C(=O)N(C)C)c1ccccc1` (some centres unmarked), for which the Ki lay within 1 to 100 nM.

In the case of `CCCC(NC(=O)[C@@H]1CC2(CCCC2)CN1C(=O)[C@@H](NC(=O)OCC(C)C)C1CCCCC1)C(=O)C(=O)NCC(=O)NC(C(=O)OC)c1ccccc1` (some centres unmarked), the Ki was in the range of 1 to 100 nM.

Turning to `CCCC(NC(=O)[C@@H]1C[C@@](C)(CCC)CN1C(=O)[C@@H](NC(=O)OCC(C)C)C1CCCCC1)C(=O)C(=O)NCC(=O)NC(C(=O)N(C)C)c1ccccc1` (some centres unmarked), the Ki fell in the range of 1 to 100 nM.

`CCCC(NC(=O)C1C[C@@H](C2CCCCC2)CN1C(=O)[C@@H](NC(=O)OCC(C)C)C1CCCCC1)C(=O)C(=O)NCC(=O)N[C@H](C(N)=O)c1ccccc1` (some centres unmarked): the Ki was in the range of 101 to 1000 nM.

With `CCCC(NC(=O)C1C[C@@H](NS(=O)(=O)c2ccc3c(c2)CCO3)CN1C(=O)[C@@H](NC(=O)OCC(C)C)C1CCCCC1)C(=O)C(=O)NCC(=O)N[C@H](C(N)=O)c1ccccc1` (some centres unmarked), the Ki was in the range of 101 to 1000 nM.

Regarding `CCCC(NC(=O)C1C[C@@H](NS(=O)(=O)c2ccc(OC)cc2)CN1C(=O)[C@@H](NC(=O)OCC(C)C)C1CCCCC1)C(=O)C(=O)NCC(=O)N[C@H](C(N)=O)c1ccccc1` (some centres unmarked), the Ki was in the range of 101 to 1000 nM.

For the molecule `CCCC(NC(=O)C1C[C@@H](NS(=O)(=O)c2ccc(Cl)cc2)CN1C(=O)[C@@H](NC(=O)OCC(C)C)C1CCCCC1)C(=O)C(=O)NCC(=O)N[C@H](C(N)=O)c1ccccc1` (some centres unmarked), the Ki was in the range of 101 to 1000 nM.

Take `CCCC(NC(=O)C1C[C@@H](NS(=O)(=O)c2ccccc2)CN1C(=O)[C@@H](NC(=O)OCC(C)C)C1CCCCC1)C(=O)C(=O)NCC(=O)N[C@H](C(N)=O)c1ccccc1` (some centres unmarked): the Ki lay within 1 to 100 nM.

Take `CCCC(NC(=O)C1C[C@@H](NC(=O)OCC(C)C)CN1C(=O)[C@@H](NC(=O)OCC(C)C)C1CCCCC1)C(=O)C(=O)NCC(=O)N[C@H](C(N)=O)c1ccccc1` (some centres unmarked): the Ki was in the range of 1 to 100 nM.

For `CCCC(NC(=O)C1C[C@@H](NC(=O)Nc2ccc(C(C)=O)cc2)CN1C(=O)[C@@H](NC(=O)OCC(C)C)C1CCCCC1)C(=O)C(=O)NCC(=O)N[C@H](C(N)=O)c1ccccc1` (some centres unmarked), the Ki lay within 101 to 1000 nM.

Turning to `CCCC(NC(=O)[C@@H]1C[C@@H](NC(=O)Nc2ccc(OC)cc2)CN1C(=O)[C@@H](NC(=O)OCC(C)C)C1CCCCC1)C(=O)C(=O)NCC(=O)N[C@H](C(N)=O)c1ccccc1` (some centres unmarked), the Ki is 1 to 100 nM.

With `CCCC(NC(=O)[C@@H]1C[C@@H](NC(=O)Nc2cccc(Cl)c2)CN1C(=O)[C@@H](NC(=O)OCC(C)C)C1CCCCC1)C(=O)C(=O)NCC(=O)N[C@H](C(N)=O)c1ccccc1` (some centres unmarked), the Ki is 101 to 1000 nM.

For `CCCC(NC(=O)[C@@H]1C[C@@H](NS(=O)(=O)c2ccccc2)CN1C(=O)[C@@H](NC(=O)OCC(C)C)C(C)C)C(=O)C(=O)NCC(=O)N[C@H](C(N)=O)c1ccccc1` (some centres unmarked), the Ki is 101 to 1000 nM.

Still in this test, the particulars now being: Table 5; HCV NS3/NS4A protease, 30° C., pH 6.5; read-out: Ki* Range.
Take `C=CCCNC(=O)C(=O)C(CCC=C)NC(=O)[C@@H]1[C@@H]2[C@H](CN1C(=O)[C@@H](NC(=O)NC13CC4CC(CC(C4)C1)C3)C1Cc3ccccc3C1)C2(C)C` (some centres unmarked): the Ki lay within 101 to 1000 nM.

Take `C=CCNC(=O)C(=O)C(CCC)NC(=O)[C@@H]1C2C(CN1C(=O)C(NC(=O)[C@@H](NC(=O)OC(C)(C)C)C(c1ccccc1)c1ccccc1)C(C)(C)C)C2(C)C` (some centres unmarked): the Ki was more than 1000 nM.

As to `C=CCCNC(=O)C(=O)C(CCC=C)NC(=O)[C@@H]1[C@@H]2[C@H](CN1C(=O)[C@@H](NC(=O)NC13CC4CC(CC(C4)C1)C3)C(C)(C)C)C2(C)C` (some centres unmarked), the Ki lay within 1 to 100 nM.

As to `CCCC(NC(=O)[C@@H]1C2C(CN1C(=O)[C@@H](NC(=O)OC(C)(C)C)C1Cc3ccccc3C1)C2(C)C)C(=O)C(=O)NCCC(=O)OC(C)(C)C` (some centres unmarked), the Ki lay in the range of 101 to 1000 nM.

As for `C=CCCC(NC(=O)[C@@H]1C2C(CN1C(=O)[C@@H](NC(=O)OC(C)C)C1Cc3ccccc3C1)C2(C)C)C(=O)C(=O)NCC=C` (some centres unmarked), the Ki was 1 to 100 nM.

Take `C=CCCC(NC(=O)[C@@H]1[C@H]2[C@@H](CN1C(=O)[C@@H](NC(=O)OC(C)C(C)C)C1Cc3ccccc3C1)C2(C)C)C(=O)C(=O)NCC=C` (some centres unmarked): the Ki fell in the range of 1 to 100 nM.

Regarding `C=CCCC(NC(=O)[C@@H]1[C@H]2[C@@H](CN1C(=O)[C@@H](NC(=O)OCC(C)C)C1Cc3ccccc3C1)C2(C)C)C(=O)C(=O)NCC=C` (some centres unmarked), the Ki is 101 to 1000 nM.

In the case of `C=CCCNC(=O)C(=O)C(CCC=C)NC(=O)[C@@H]1[C@@H]2[C@H](CN1C(=O)[C@@H](NC(=O)NC1CCCCC1)C(C)(C)C)C2(C)C` (some centres unmarked), the Ki was in the range of 1 to 100 nM.

For `C=CCNC(=O)C(=O)C(CCC)NC(=O)[C@@H]1[C@@H]2[C@H](CN1C(=O)[C@@H](NC(=O)NC(C)(C)C)C(C)(C)C)C2(C)C` (some centres unmarked), the Ki was 101 to 1000 nM.

Take `C=CCNC(=O)C(=O)C(CCC)NC(=O)[C@@H]1[C@@H]2[C@H](CN1C(=O)[C@@H](NC(=O)NC(C)(C)C)C1CCCCC1)C2(C)C` (some centres unmarked): the Ki was more than 1000 nM.

For the molecule `C=CCCC(NC(=O)[C@@H]1C2C(CN1C(=O)[C@@H](NC(=O)OCC(C)(C)C)C1Cc3ccccc3C1)C2(C)C)C(=O)C(=O)NCC=C` (some centres unmarked), the Ki lay in the range of 1 to 100 nM.

Take `C=CCCNC(=O)C(=O)C(CCC=C)NC(=O)[C@@H]1[C@@H]2[C@H](CN1C(=O)[C@@H](NC(=O)NC(C)(C)CC(C)(C)C)C(C)(C)C)C2(C)C` (some centres unmarked): the Ki is 101 to 1000 nM.

On to `C=CCCC(NC(=O)[C@@H]1[C@@H]2[C@H](CN1C(=O)[C@@H](NC(=O)NC1CCCC1)C(C)(C)C)C2(C)C)C(=O)C(=O)NCC=C` (some centres unmarked), for which the Ki fell in the range of 1 to 100 nM.

Consider `C=CCNC(=O)C(=O)C(CC)NC(=O)[C@@H]1[C@@H]2[C@H](CN1C(=O)[C@@H](NC(=O)OC(C)(C)C)C1CCCCC1)C2(C)C` (some centres unmarked), for which the Ki was more than 1000 nM.

As to `C=CCCNC(=O)C(=O)C(CC)NC(=O)[C@@H]1[C@@H]2[C@H](CN1C(=O)[C@@H](NC(=O)OC(C)(C)C)C1CCCCC1)C2(C)C` (some centres unmarked), the Ki was more than 1000 nM.

Consider `C=CCNC(=O)C(=O)C(CC)NC(=O)[C@@H]1[C@@H]2[C@H](CN1C(=O)[C@@H](NC(=O)OC(C)(C)C)C(C)(C)C)C2(C)C` (some centres unmarked), for which the Ki is more than 1000 nM.

`CCCNC(=O)CNC(=O)C(=O)C(CCC)NC(=O)[C@@H]1C2C(CN1C(=O)C(NC(=O)OC(C)(C)C)C1CCCCC1)C2(C)C` (some centres unmarked): the Ki is 101 to 1000 nM.

As for `CCCC(NC(=O)[C@@H]1C2C(CN1C(=O)C(NC(=O)OC(C)(C)C)C1CCCCC1)C2(C)C)C(=O)C(=O)NCC(N)=O` (some centres unmarked), the inhibition constant (Ki) was in the range of 101 to 1000 nM.

In the case of `C=CCCNC(=O)C(=O)C(CCC=C)NC(=O)[C@@H]1[C@@H]2[C@H](CN1C(=O)[C@@H](NC(=O)NC(C)(C)C)C(C)(C)C)C2(C)C` (some centres unmarked), the Ki was 1 to 100 nM.
